According to PubChem BioAssay (NCATS):
Values joined by “and” are separate entries in the source; they are usually repeats but may differ in a detail not shown here. Identical values can stand only once. This list was built around the results that the source calls inconclusive (neither active nor inactive); the mix of calls is not that of the screen. Potencies of inconclusive entries are doubtful fits and often do not repeat. Active and inactive are the calls of the source. Unless noted, calls come from the whole dose curve; as a rule, active = well fitted curve in the direction sought with a large enough effect; inconclusive = small, poorly fitted or top-dose-only effect, or another doubt; inactive = no such curve, though single readings can be large; an effect the other way counts as inactive or inconclusive.

Tests used:
[1] = qHTS for Inhibitors of Plasmodium falciparum (DD2) proliferation (AID 504314);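 for activity, negative = inhibition: parasite DNA measured by SYBR Green fluorescence after red cell lysis; plate controls were DMSO vehicle for no effect and artemisinin wells for full effect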
In short: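 Normalization used 0.29 uM artemisinin as full inhibition and DMSO as baseline. Parasitized erythrocytes were exposed to compounds for 72 h (37C, 5% CO2), then lysed with saponin/Triton buffer containing SYBR Green I.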

[2] = target: Atrial natriuretic peptide receptor 1 (Homo sapiens) (UniProt P16066); experiment: Natriuretic polypeptide receptor (hNpr1) antagonism - Pilot CMLD screen (AID 1347052; calls by dose curve;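 note: cGMP level read as GloSensor luciferase luminescence after agonist stimulation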;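 for activity change, negative = inhibition: HEK293 cells with hNpr1 stimulated by hNppA peptide at 0.1 nM; % is set by controls: 0 for no effect and ±100 for the full control effect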)
[3] = qHTS for Inhibitors of Plasmodium falciparum (GB4) proliferation (AID 504315); note: nearly all actives have a fitted effect of over 50% in size; conditions: P. falciparum GB4 in erythrocytes, SYBR Green DNA, 72 h; activity change, negative = inhibition: at 6.7 µM (top of the series)
In short: (§1)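 Parasite growth measured as SYBR Green DNA fluorescence (ex 485, em 535 nm) after overnight lysis following 72 h culture at 37 °C, 0.3% parasitemia, 2.5% hematocrit. Values normalized against DMSO and 0.29 uM artemisinin controls, with plate-stack correction.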

[4] = qHTS for Inhibitors of Plasmodium falciparum (7G8) proliferation (AID 504316); note: nearly all actives have a fitted effect of over 65% in size;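 for activity change, negative = inhibition: 0% = DMSO vehicle and -100% = 0.29 µM artemisinin full kill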; conditions: P. falciparum 7G8 in erythrocytes, SYBR Green DNA, 72 h; activity change, negative = inhibition: at 6.7 µM (top of the series)
In short: as §1

[5] = qHTS for Inhibitors of Plasmodium falciparum (HB3) proliferation (AID 504318); note: nearly all actives have a fitted effect of over 60% in size;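 for activity change, negative = inhibition: 0% = DMSO vehicle and -100% = artemisinin control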; conditions: P. falciparum HB3 in erythrocytes, SYBR Green DNA, 72 h; activity change, negative = inhibition: at 7.21 µM (top of the series)
In short: as §1

[6] = qHTS for Inhibitors of Plasmodium falciparum (CP250) proliferation (AID 504320);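 for activity change, negative = inhibition: plate controls were DMSO vehicle for no effect and 0.29 µM artemisinin control for full effect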
In short: as §1
Potency is the fitted concentration of half-maximal effect; tags give direction and shape of the fitted curve.

Chain of UniProt P16066 (P16066 whole entry, looked up): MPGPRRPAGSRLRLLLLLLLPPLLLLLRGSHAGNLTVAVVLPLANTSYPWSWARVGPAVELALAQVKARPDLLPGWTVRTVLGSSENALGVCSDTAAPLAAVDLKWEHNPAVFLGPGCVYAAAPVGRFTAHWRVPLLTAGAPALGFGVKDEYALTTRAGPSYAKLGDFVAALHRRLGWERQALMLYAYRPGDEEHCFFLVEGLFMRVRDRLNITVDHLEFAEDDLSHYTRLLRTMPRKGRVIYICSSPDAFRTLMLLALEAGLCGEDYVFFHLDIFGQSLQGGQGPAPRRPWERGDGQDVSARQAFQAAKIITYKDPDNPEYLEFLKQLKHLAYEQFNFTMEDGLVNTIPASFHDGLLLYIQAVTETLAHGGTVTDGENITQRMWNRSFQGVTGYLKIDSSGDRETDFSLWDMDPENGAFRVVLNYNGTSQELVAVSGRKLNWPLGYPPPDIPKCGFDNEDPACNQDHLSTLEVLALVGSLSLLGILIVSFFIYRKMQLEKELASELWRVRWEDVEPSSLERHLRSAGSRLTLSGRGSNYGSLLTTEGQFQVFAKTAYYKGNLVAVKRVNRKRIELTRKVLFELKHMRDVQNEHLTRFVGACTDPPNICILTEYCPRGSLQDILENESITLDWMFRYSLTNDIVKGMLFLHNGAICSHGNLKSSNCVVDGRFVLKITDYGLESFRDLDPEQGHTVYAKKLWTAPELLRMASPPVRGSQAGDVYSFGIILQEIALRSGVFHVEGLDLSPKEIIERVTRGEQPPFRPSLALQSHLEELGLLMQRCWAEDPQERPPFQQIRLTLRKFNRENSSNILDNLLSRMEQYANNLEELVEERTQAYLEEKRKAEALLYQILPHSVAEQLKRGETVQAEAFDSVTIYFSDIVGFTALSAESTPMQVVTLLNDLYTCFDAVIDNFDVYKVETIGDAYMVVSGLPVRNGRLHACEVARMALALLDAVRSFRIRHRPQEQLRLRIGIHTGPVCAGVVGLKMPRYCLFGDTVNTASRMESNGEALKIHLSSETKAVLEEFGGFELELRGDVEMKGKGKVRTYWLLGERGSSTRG

Compound	Potency [1]	Potency [2]	Potency [3]	Potency [4]	Potency [5]	Potency [6]	activity, negative = inhibition [1]
COCCN1C(=O)NC(c2cccc(C(F)(F)F)c2)C(C(=O)OC)=C1C (stereo not given)	inconclusive: 3.78 µM [inhibitor, single point]	inconclusive: 1190 nM [inhibitor, single point]	–	–	–	–	–
Cc1ccccc1Nc1oc(-c2ccccc2)nc1-c1ccccc1	inconclusive: 3.78 µM [inhibitor, single point]	inactive	active: 1900 nM	active: 1.69 µM	active: 1.69 µM	inconclusive: 4260 nM [inhibitor, single point]	–
CCCCCCCC1=Cc2ccccc2C(C(C(C)=O)C(=O)OC)N1C(=O)OC (stereo not given)	inconclusive: 4.24 µM [inhibitor, single point]	inconclusive: 5310 nM [inhibitor, single point]	–	inconclusive: 1.51 µM [inhibitor, single point] and inconclusive: 1.9 µM [inhibitor, partial curve, poor fit]	inconclusive: 1.69 µM [inhibitor, single point] and inconclusive: 1.9 µM [inhibitor, partial curve, poor fit]	–	inactive: -0.453% [at 1.12 µM]
C[C@@H]1CC[C@H]2C(=O)N(Cc3ccccc3)C[C@H](O)CN2[C@@H]1c1ccc(Br)cc1	inconclusive: 1.69 µM [inhibitor, partial curve]	active: 2990 nM	active: 1690 nM	inconclusive: 1.51 µM [inhibitor, partial curve, poor fit]	inconclusive: 2.69 µM [inhibitor, single point]	–	–
C=CC1=C2C=C(C3CC3)N(CCCCO)C=C2C(=O)C(C)(OC(=O)c2ccco2)C1=O (stereo not given)	inconclusive: 1.34 µM [inhibitor, partial curve]	inconclusive: 106 nM [inhibitor, single point]	–	inconclusive: 1.69 µM [inhibitor, single point] and inconclusive: 1.51 µM [inhibitor, partial curve, poor fit]	–	–	–
COC(=O)C1=C(C)N(Cc2ccccc2)C(=NCCc2ccc(O)cc2)NC1c1ccc(Br)cc1 (stereo not given)	inconclusive: 4.24 µM [inhibitor, single point]	inactive	inconclusive: 1690 nM [inhibitor, partial curve]	–	–	inconclusive: 2390 nM [inhibitor, single point]	–
COC(=O)CCC(=O)OC1(C)C(=O)C=C2C=C(C3CC3)N(c3ccc(OC)cc3)C=C2C1=O (stereo not given)	inconclusive: 2.38 µM [inhibitor, single point]	inconclusive: 133 nM [inhibitor, single point]	inconclusive: 1900 nM [inhibitor, single point]	inconclusive: 1.9 µM [inhibitor, single point]	inconclusive: 4.26 µM [inhibitor, single point] and inconclusive: 1.51 µM [inhibitor, single point]	inactive and inconclusive: 4.26 µM [inhibitor, single point]	–
C=CCNC(=O)N1C2=NC(C(=O)OC)=C(C(=O)OC)[C@@H]3N(Cc4ccccc4)c4ccccc4[C@]23C[C@H]1C(=O)OC	inconclusive: 3.36 µM [inhibitor, single point]	inconclusive: 750 nM [inhibitor, single point]	active: 1900 nM	active: 1.51 µM	active: 3.16 µM	inconclusive: 3010 nM [inhibitor, single point]	–
CCCCCCC#C[C@@H]1C=C[C@H](OC(C)=O)[C@@H](COC(C)=O)O1	inconclusive: 1.69 µM [inhibitor, partial curve, poor fit]	inconclusive: 1330 nM [inhibitor, full curve, poor fit]	inconclusive: 84.9 nM [inhibitor, full curve, poor fit]	inconclusive: 1.2 µM [inhibitor, partial curve, poor fit]	inconclusive: 2.69 µM [inhibitor, partial curve, poor fit]	–	–
COC(=O)N[C@@H](c1ccco1)[C@]1(C(C)=O)CCCC1=O	–	inactive	–	–	–	–	–
COCOc1ccc(OC)cc1C(=O)C=Cc1ccc(OC)c(Br)c1	inconclusive: 1.89 µM [inhibitor, partial curve]	inconclusive: 2660 nM [inhibitor, single point]	–	inconclusive: 1.69 µM [inhibitor, single point]	active: 1.69 µM	inconclusive: 1690 nM [inhibitor, single point]	–
COCc1cc2cc3c(cc2c2c(C(=O)OC)c(C(=O)OC)c(C(=O)OC(C)(C)C)n12)OCO3	inconclusive: 3 µM [inhibitor, single point]	active: 3350 nM	–	active: 1.51 µM	inconclusive: 1.51 µM [inhibitor, partial curve]	–	–
CCCCCCN1C(=O)CC[C@@]23C1=NC(C(=O)OC)=C(C(=O)OC)[C@@H]2N(Cc1ccccc1)c1ccccc13	inactive	inactive	–	inconclusive: 1.9 µM [inhibitor, partial curve, poor fit]	inactive	–	–
FC(F)(F)c1cc(NC(=S)NC23CC4CC(CC(C4)C2)C3)cc(C(F)(F)F)c1	active: 0.753 µM	inconclusive: 5310 nM [inhibitor, single point]	–	active: 0.601 µM	active: 0.478 µM	active: 849 nM	–
COc1ccc(-c2nc3c(c4c2C[C@H](c2ccccc2)OC4)CN(C(=O)N[C@@H](C)C(=O)OC(C)C)CC3)c(C)c1	inconclusive: 1.5 µM [inhibitor, single point]	inactive	–	active: 1.51 µM	active: 1.65 µM	–	–
CCN1C(=O)N[C@@H](c2cccc(C(F)(F)F)c2)[C@@H](C(=O)OC)[C@H]1C	inconclusive: 0.0233 µM [inhibitor, partial curve, poor fit]	inconclusive: 1190 nM [inhibitor, single point]	–	–	inactive	–	–
CCN1C(=O)NC(c2cccc(C(F)(F)F)c2)C(C(C)=O)=C1C (stereo not given)	inactive	inactive	–	–	inactive	–	–
COC(=O)C1=C(C)N(Cc2ccccc2)C(=O)NC1c1ccco1 (stereo not given)	inactive	inconclusive: 1190 nM [inhibitor, single point]	–	inactive	–	–	–
COC(=O)C[C@H]1c2ccccc2C2=C(C[C@@H](C)[C@H]3C(=O)N(c4ccccc4)C(=O)[C@@H]23)N1C(=O)OC	inconclusive: 4.24 µM [inhibitor, single point] and inconclusive: 1.5 µM [inhibitor, partial curve, poor fit]	inactive and inconclusive: 94.4 nM [inhibitor, single point]	–	inconclusive: 4.26 µM [inhibitor, partial curve, poor fit] and inconclusive: 2.13 µM [inhibitor, partial curve]	–	–	–
COCOc1c2c(c(OCOC)c3c(OCOC)cccc13)C(=NNS(C)(=O)=O)C1=C2CCCC1	inconclusive: 2.67 µM [inhibitor, partial curve, poor fit]	inconclusive: 106 nM [inhibitor, single point]	–	active: 1.69 µM	inconclusive: 1.69 µM [inhibitor, partial curve]	–	–
COc1ccc([C@]23Cc4cc(OC)c(OC)cc4[C@H](O2)c2c(c4ccccc4oc2=O)O3)cc1	inconclusive: 4.24 µM [inhibitor, single point]	inconclusive: 75 nM [inhibitor, single point]	–	inconclusive: 1.51 µM [inhibitor, partial curve]	inactive	–	–
CCCC[C@]12Cc3cc(OC)c(OC)cc3[C@H](O1)C1=C(O2)C(=O)c2ccccc2C1=O	active: 3 µM	inconclusive: 150 nM [inhibitor, single point]	–	active: 1.51 µM	inconclusive: 1.9 µM [inhibitor, single point]	–	–
COC(=O)C1=C(C(=O)OC)[C@@H]2N(CC=C(C)C)c3ccccc3[C@@]23CCC(=O)N(CCc2ccccn2)C3=N1	inactive	inactive	–	inconclusive: 2.13 µM [inhibitor, single point]	inconclusive: 1.51 µM [inhibitor, partial curve]	inactive	–
COC(=O)C1=C(C(=O)OC)[C@@H]2N(Cc3ccccc3)c3ccccc3[C@@]23C[C@@H](C(=O)OC)N(C(=O)c2cc(C)oc2C)C3=N1	inactive	inactive	–	–	inactive	–	–
O=C1C2=C(C(=O)c3ccccc31)[C@H]1O[C@](CCCCN3C(=O)c4ccccc4C3=O)(Cc3ccccc31)O2	inconclusive: 2.67 µM [inhibitor, single point]	inactive	–	active: 1.69 µM	active: 1.69 µM	–	–
CCN1C(=NCCCOC(C)C)N[C@@H](CCc2ccccc2)[C@H](C(=O)NCCCOC(C)C)[C@H]1C	inconclusive: 1.34 µM [inhibitor, single point]	inactive	–	inconclusive: 4.26 µM [inhibitor, single point]	–	inconclusive: 4260 nM [inhibitor, single point]	–
